Laboratory results: paper PMC4336329 (PLoS ONE, 2015)
Screen size: about 310,000 compounds; about 2,200 (0.71%) showed an effect of 50% or more. Effects have a minus sign here. Some of the results follow.

These compounds were tested against human ether-à-go-go-related gene (hERG) potassium channel (human, UniProt Q12809) (assay: primary screen, population patch clamp on CHO cells stably expressing hERG).
human ether-à-go-go-related gene (hERG) potassium channel, sequence (Q12809 whole entry, looked up): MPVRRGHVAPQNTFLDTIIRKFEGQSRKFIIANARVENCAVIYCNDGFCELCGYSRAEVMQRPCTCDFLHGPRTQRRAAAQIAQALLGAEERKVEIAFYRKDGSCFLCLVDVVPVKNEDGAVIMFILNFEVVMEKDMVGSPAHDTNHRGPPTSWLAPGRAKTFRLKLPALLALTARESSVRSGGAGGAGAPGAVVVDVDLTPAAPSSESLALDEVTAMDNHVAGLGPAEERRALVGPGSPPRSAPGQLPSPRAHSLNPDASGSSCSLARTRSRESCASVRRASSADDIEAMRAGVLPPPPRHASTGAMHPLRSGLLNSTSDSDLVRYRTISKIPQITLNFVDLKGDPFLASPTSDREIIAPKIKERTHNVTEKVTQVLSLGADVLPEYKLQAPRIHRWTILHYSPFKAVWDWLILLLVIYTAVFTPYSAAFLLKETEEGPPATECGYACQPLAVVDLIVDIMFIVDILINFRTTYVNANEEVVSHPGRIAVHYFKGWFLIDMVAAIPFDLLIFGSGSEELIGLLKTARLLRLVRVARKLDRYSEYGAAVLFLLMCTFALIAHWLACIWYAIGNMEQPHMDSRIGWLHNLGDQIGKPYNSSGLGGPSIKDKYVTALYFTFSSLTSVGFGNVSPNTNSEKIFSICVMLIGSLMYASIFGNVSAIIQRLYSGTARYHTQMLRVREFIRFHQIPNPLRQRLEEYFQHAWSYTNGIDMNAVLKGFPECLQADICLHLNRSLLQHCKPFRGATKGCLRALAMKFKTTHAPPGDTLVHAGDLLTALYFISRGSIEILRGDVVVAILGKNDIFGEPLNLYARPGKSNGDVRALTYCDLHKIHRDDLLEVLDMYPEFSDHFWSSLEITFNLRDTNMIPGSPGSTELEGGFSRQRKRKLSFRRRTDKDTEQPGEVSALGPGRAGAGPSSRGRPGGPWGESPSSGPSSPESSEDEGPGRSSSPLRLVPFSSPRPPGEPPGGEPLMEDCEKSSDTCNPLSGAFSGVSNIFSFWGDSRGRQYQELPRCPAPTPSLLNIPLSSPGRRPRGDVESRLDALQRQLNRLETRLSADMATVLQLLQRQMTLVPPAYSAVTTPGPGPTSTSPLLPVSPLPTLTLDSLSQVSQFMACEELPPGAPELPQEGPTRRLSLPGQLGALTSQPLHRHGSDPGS

Row | SMILES | hERG current change (%, negative = inhibition) at 1uM
1 | COc1ccc(C(C(=O)NC(C)(C)C)N(Cc2ccco2)C(=O)CCC(=O)Nc2cc(C)on2)cc1 (centres unmarked) | 4.56%
2 | O=c1oc(-c2ccc([N+](=O)[O-])cc2)nc2ccc(O)cc12 | 11.8%
3 | C/C(=C\C(=O)c1sccc1Cl)N(C)C | 9.15%
4 | O=C(c1cccs1)N1CCC(N2CCN(c3ccccc3)CC2)CC1 | -14.5%
5 | O=C(NCc1ccc(Cl)cc1)c1cc(S(=O)(=O)N2CCCCC2)c[nH]1 | 7.72%
6 | Oc1ccc[nH+]c1SCc1ccccc1.[Br-] | 9.06%
7 | COCCNC(=O)CN1C(=O)COc2ccc(S(=O)(=O)N3CC(C)CC(C)C3)cc21 (centres unmarked) | 7.36%
8 | c1ccc(C(c2nnnn2C2CCCCC2)N2CCc3ccccc3C2)nc1 (centres unmarked) | 7.86%
9 | O=C(CN1C(=O)/C(=C/c2ccc(F)cc2)SC1=S)N1CCN(CCc2ccccn2)CC1 | -0.109%
10 | CCCOc1ccc(NC(=O)CC2C(=O)OCC3CCCCN32)cc1 (centres unmarked) | 3.8%
11 | COc1ccc(S(=O)(=O)N2CCCC(C(=O)Nc3ccc(OC)c(OC)c3)C2)cc1 (centres unmarked) | 9.16%
12 | O=C(CSc1nnc(NC(=O)c2ccco2)s1)Nc1ccc(F)cc1F | 8.99%
13 | CCOc1ccc(C2NC(=O)NC(C)=C2C(=O)OC)cc1C (centres unmarked) | 2.95%
14 | CCNS(=O)(=O)c1ccc(C(=O)Nc2ccccc2)cc1 | 0.857%
15 | CS(=O)(=O)N(CC(=O)Nc1ccc(S(=O)(=O)N2CCOCC2)cc1)c1cccc(F)c1 | 1.71%
16 | Cc1ccccc1Nc1nc(N)nc(COC(=O)[C@@H](NC(=O)c2ccccc2Cl)C(C)C)n1 | -3.84%
17 | CCC(Sc1n[nH]c(=O)[nH]c1=O)C(=O)OCc1ccccc1 (centres unmarked) | 15.8%
18 | Cc1ccn2c(=O)nc(SCC(=O)N3CCN(c4ccccc4)CC3)nc2c1 | 2.29%
19 | CN(C(=S)Nc1ccc(Oc2ccccc2)cc1)C1CCCCC1 | 2.93%
20 | Brc1ccc2[nH]c3nc(SCCN4CCOCC4)nnc3c2c1.Cl | 9.2%
21 | CCn1cc(CNCc2ccc(OCC(O)CN(C)Cc3ccccc3)cc2)cn1 (centres unmarked) | 9.73%
22 | CCOc1ccc(Cl)cc1/C=N/NC(=O)c1ccccc1 | 0.476%

Row | SMILES | hERG current change (%, negative = inhibition) at 1uM
23 | O=C(Cn1cccc1C(=O)c1ccccc1)NCc1ccc(Cl)cc1 | 15.8%
24 | Cc1ccc2nc(C)cc(Nc3ccc([N+](=O)[O-])cc3)c2c1 | 15.3%
25 | COc1ccc(Cn2nnnc2C(c2cccs2)N2CCOCC2)cc1 (centres unmarked) | 4.19%
26 | COc1ccc(N(CC(=O)NCc2ccccc2)S(=O)(=O)c2c(C)nn(C)c2C)cc1 | 4.78%
27 | CC(NCC(=O)Nc1ccccc1C(=O)NC1CC1)c1ccc(F)cc1F (centres unmarked) | 1.42%
28 | CCS(=O)(=O)c1ccc(O)c(NC(=O)COc2ccccc2)c1 | 12.6%
29 | O=C(CSc1ccc(-c2ccc(Br)cc2)nn1)NCC1CCCO1 (centres unmarked) | 17.4%
30 | CCOC(=O)N1CCC(Nc2nc3ccccc3n3nnnc23)CC1 | 2.8%
31 | COc1ccc(NC(=O)CN(C)C(=O)CCCSc2nc3ccccc3[nH]2)cc1 | 3.64%
32 | c1ccc2c(c1)OCC(c1csc3ncnc(N4CCCCC4)c13)O2 (centres unmarked) | 15.7%
33 | Cc1ccc(S(=O)(=O)N(C)c2ccc(C(=O)N3CCC(C(N)=O)CC3)cc2)cc1 | 9.45%
34 | CN1CCN(S(=O)(=O)Cc2ccc(Cl)cc2)CC1 | 8.61%
35 | O=C1C2CC(O)CN2C(=S)N1Cc1ccccc1 (centres unmarked) | 15.3%
36 | CCCCCCC(=O)N1CCC(c2nc3c(nnn3Cc3ccccc3Cl)c(=O)[nH]2)CC1 | 4.48%
37 | COc1ccccc1NC(=O)/C(=C/c1cccs1)NC(=O)c1ccco1 | 0.923%
38 | COCCn1c(CN2CCN(c3ccccc3)CC2)nc2c1c(=O)n(C)c(=O)n2C | 1.56%
39 | COc1ccc(S(=O)(=O)N2CCCC(C(=O)N3CCN(C)CC3)C2)cc1C (centres unmarked) | 5.91%
40 | CC(C)Cc1nc(Cl)c(C#N)c2c1CCCC2 | 12.9%
41 | CC(=O)Nc1ccc(NC(=O)CSc2ccccn2)cc1 | 7.33%
42 | CCOc1ccc(CNC(=O)CN2C(=O)CSc3ccc(S(=O)(=O)N4CCOCC4)cc32)cc1OC | 7.03%
43 | S=C1NC2=C(C(c3ccc(Br)cc3)N1)N1CCC2CC1 (centres unmarked) | 4.77%
44 | Cc1cc(C)n2cc(CSc3nnnn3-c3ccccc3C)nc2n1 | -9.4%
